Experimental data as given in the supplement of paper PMC8728848.
The list shows a part of the results.

Columns and labels:
Assay in all cases: glycan array binding signal (z-score within array); higher = stronger binding
Details in all cases: glycan notation: IUPAC condensed, linker removed
[1] = molecular target: Fuc(a1-2)[Gal(a1-3)]Gal(b1-4)GlcNAc(b1-2)Man(a1-3)[Fuc(a1-2)[Gal(a1-3)]Gal(b1-4)GlcNAc(b1-2)Man(a1-6)]Man(b1-4)GlcNAc(b1-4)[Fuc(a1-6)]GlcNAc
Outline: (§1)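 Arrays were curated from the Consortium for Functional Glycomics database, 3228 in total, and kept only where the protein sequence was available. Binding is expressed as a within-array Z-score. This score was averaged across arrays of the same protein sequence at different concentrations or buffers and across linkers, and negative values can be read as non-binding.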

[2] = molecular target: Fuc(a1-2)[Gal(a1-3)]Gal(b1-4)GlcNAc(b1-3)GalNAc
Outline: as §1

[3] = molecular target: Fuc(a1-2)[Gal(a1-3)]Gal(b1-4)GlcNAc(b1-6)GalNAc
Outline: as §1

[4] = molecular target: Fuc(a1-2)[Gal(a1-3)]Gal(b1-4)[Fuc(a1-3)]Glc
Outline: as §1

[5] = molecular target: Fuc(a1-2)[Gal(a1-3)]Gal(b1-4)[Fuc(a1-3)]GlcNAc
Outline: as §1

[6] = molecular target: Fuc(a1-2)[Gal(a1-3)]Gal(b1-4)[Fuc(a1-3)]GlcNAc(b1-3)GalNAc
Outline: as §1

[7] = molecular target: Fuc(a1-2)[Gal(a1-4)]Gal(b1-4)GlcNAc
Outline: as §1

[8] = molecular target: Fuc(a1-2)[GalNAc(a1-3)]Gal
Outline: as §1

[9] = molecular target: Fuc(a1-2)[GalNAc(a1-3)]Gal(b1-3)GalNAc(a1-3)[Fuc(a1-2)]Gal(b1-4)GlcNAc
Outline: as §1

[10] = molecular target: Fuc(a1-2)[GalNAc(a1-3)]Gal(b1-3)GalNAc(b1-3)Gal(a1-4)Gal(b1-4)Glc
Outline: as §1

[11] = molecular target: Fuc(a1-2)[GalNAc(a1-3)]Gal(b1-3)GlcNAc
Outline: as §1

[12] = molecular target: Fuc(a1-2)[GalNAc(a1-3)]Gal(b1-3)GlcNAc(b1-2)Man(a1-3)[Fuc(a1-2)[GalNAc(a1-3)]Gal(b1-3)GlcNAc(b1-2)Man(a1-6)]Man(b1-4)GlcNAc(b1-4)GlcNAc
Outline: as §1

[13] = molecular target: Fuc(a1-2)[GalNAc(a1-3)]Gal(b1-3)GlcNAc(b1-2)Man(a1-3)[Fuc(a1-2)[GalNAc(a1-3)]Gal(b1-3)GlcNAc(b1-2)Man(a1-6)]Man(b1-4)GlcNAc(b1-4)[Fuc(a1-6)]GlcNAc
Outline: as §1

[14] = molecular target: Fuc(a1-2)[GalNAc(a1-3)]Gal(b1-3)GlcNAc(b1-3)GalNAc
Outline: as §1

[15] = molecular target: Fuc(a1-2)[GalNAc(a1-3)]Gal(b1-3)GlcNAc(b1-6)GalNAc
Outline: as §1

[16] = molecular target: Fuc(a1-2)[GalNAc(a1-3)]Gal(b1-4)Glc
Outline: as §1

[17] = molecular target: Fuc(a1-2)[GalNAc(a1-3)]Gal(b1-4)GlcNAc
Outline: as §1

[18] = molecular target: Fuc(a1-2)[GalNAc(a1-3)]Gal(b1-4)GlcNAc(b1-2)Man
Outline: as §1

[19] = molecular target: Fuc(a1-2)[GalNAc(a1-3)]Gal(b1-4)GlcNAc(b1-2)Man(a1-3)[Fuc(a1-2)[GalNAc(a1-3)]Gal(b1-4)GlcNAc(b1-2)Man(a1-6)]Man(b1-4)GlcNAc(b1-4)GlcNAc
Outline: as §1

[20] = molecular target: Fuc(a1-2)[GalNAc(a1-3)]Gal(b1-4)GlcNAc(b1-2)Man(a1-3)[Fuc(a1-2)[GalNAc(a1-3)]Gal(b1-4)GlcNAc(b1-2)Man(a1-6)]Man(b1-4)GlcNAc(b1-4)[Fuc(a1-6)]GlcNAc
Outline: as §1

[21] = molecular target: Fuc(a1-2)[GalNAc(a1-3)]Gal(b1-4)GlcNAc(b1-3)Gal(b1-4)GlcNAc
Outline: as §1

[22] = molecular target: Fuc(a1-2)[GalNAc(a1-3)]Gal(b1-4)GlcNAc(b1-3)Gal(b1-4)GlcNAc(b1-3)Gal(b1-4)GlcNAc
Outline: as §1

[23] = molecular target: Fuc(a1-2)[GalNAc(a1-3)]Gal(b1-4)GlcNAc(b1-3)GalNAc
Outline: as §1

[24] = molecular target: Fuc(a1-2)[GalNAc(a1-3)]Gal(b1-4)GlcNAc(b1-3)[Fuc(a1-2)[GalNAc(a1-3)]Gal(b1-4)GlcNAc(b1-6)]GalNAc
Outline: as §1

[25] = molecular target: Fuc(a1-2)[GalNAc(a1-3)]Gal(b1-4)GlcNAc(b1-6)GalNAc
Outline: as §1

[26] = molecular target: Fuc(a1-2)[GalNAc(a1-3)]Gal(b1-4)[Fuc(a1-3)]GlcNAc
Outline: as §1

[27] = molecular target: Fuc(a1-2)[GalNAc(a1-3)]Gal(b1-4)[Fuc(a1-3)]GlcNAc(b1-3)GalNAc
Outline: as §1

[28] = molecular target: Fuc(a1-2)[GalNAc(a1-4)]Gal(b1-4)GlcNAc
Outline: as §1

[29] = molecular target: Fuc(a1-2)[GalNAc(b1-3)]Gal
Outline: as §1

Fuc(a1-3)GlcNAc = molecular target: Fuc(a1-3)GlcNAc
Outline: as §1

[30] = molecular target: Fuc(a1-3)[Gal(b1-4)]Glc6S
Outline: as §1

[31] = molecular target: Fuc(a1-3)[Gal(b1-4)]GlcNAc
Outline: as §1

[32] = molecular target: Fuc(a1-3)[Gal(b1-4)]GlcNAc(b1-2)Man
Outline: as §1

[33] = molecular target: Fuc(a1-3)[Gal(b1-4)]GlcNAc(b1-2)Man(a1-3)[Fuc(a1-3)[Gal(b1-4)]GlcNAc(b1-2)Man(a1-6)]Man(b1-4)GlcNAc(b1-4)GlcNAc
Outline: as §1

[34] = molecular target: Fuc(a1-3)[Gal(b1-4)]GlcNAc(b1-2)Man(a1-3)[Fuc(a1-3)[Gal(b1-4)]GlcNAc(b1-2)Man(a1-6)]Man(b1-4)GlcNAc(b1-4)[Fuc(a1-6)]GlcNAc
Outline: as §1

[35] = molecular target: Fuc(a1-3)[Gal(b1-4)]GlcNAc(b1-3)Gal(b1-3)[Fuc(a1-4)]GlcNAc
Outline: as §1

[36] = molecular target: Fuc(a1-3)[Gal(b1-4)]GlcNAc(b1-3)GalNAc
Outline: as §1

B1: Pbx1 (Cryptococcus neoformans) (protein)
chain: ATTKCLVSGDQDSINNALALGGEGTTVTLCPGSVHRLNSSIIFTAPSQTLTTLGNPKDRNRAMLVVDGEDLACAIRADCKQCSHAMIRSLVIDGNRPQLLRIPKGDALIEVGNAESQTVRDCKLYEPRGWSALHFREGDERQCRFGHIVDNEIGPCGEEWDDEYDSMDETKPLWGNPRADGISLACKDSIVERNVVYDATDGAIVLFGSAGSTVKNNHVYARTRVILGGINLVDYEPWDGDYTNVKVHHNHLYALGRYFKVGIVIGPASWSDDTESVVHSASVTDNEFSGGYWGYGIVVASAKNFEVLRNKVIWDGEQGVARFSGVPGSRCPKAPENGKPTAFLINRGSAKGIFQDDFVNGEVQHIICLNPDQDPPYKPWRFRDSPEAIAAKQAENPTANSAFDSRIAEALVSYQMSLLNSMDAMTQKVEHLTNPIVDDALPFVHEHERAEADKKARQEASRKEKESGNKDVDMLNVKVEELEKSGRRLKKALDGLKSDFEGLSGRLKKSADENKPIIETIFVTSQNLLLGATSQQN
Question: How did the “glycan array binding signal (z-score)” value [1] turn out when B1 was run?
Answer: 1.09

Question: And the “glycan array binding signal (z-score)” value [2]?
Answer: 0.041

Question: What about the “glycan array binding signal (z-score)” value [3] of the same binder?
Answer: 0.284

Question: And the “glycan array binding signal (z-score)” value [4]?
Answer: -0.081

Question: What about the “glycan array binding signal (z-score)” value [5] of the same binder?
Answer: -0.231

Question: What about the “glycan array binding signal (z-score)” value [6] of the same binder?
Answer: 0.55

Question: What about the “glycan array binding signal (z-score)” value [7] of the same binder?
Answer: 0.002

Question: And the “glycan array binding signal (z-score)” value [8]?
Answer: -0.406

Question: And the “glycan array binding signal (z-score)” value [9]?
Answer: -0.158

Question: What about the “glycan array binding signal (z-score)” value [10] of the same binder?
Answer: -0.549

Question: And the “glycan array binding signal (z-score)” value [11]?
Answer: -0.199

Question: What about the “glycan array binding signal (z-score)” value [12] of the same binder?
Answer: 0.576

Question: And the “glycan array binding signal (z-score)” value [13]?
Answer: -0.719

Question: And the “glycan array binding signal (z-score)” value [14]?
Answer: -0.307

Question: And the “glycan array binding signal (z-score)” value [15]?
Answer: -0.596

Question: And the “glycan array binding signal (z-score)” value [16]?
Answer: -0.538

Question: What about the “glycan array binding signal (z-score)” value [17] of the same binder?
Answer: -0.547

Question: What about the “glycan array binding signal (z-score)” value [18] of the same binder?
Answer: -0.397

Question: What about the “glycan array binding signal (z-score)” value [19] of the same binder?
Answer: -0.084

Question: What about the “glycan array binding signal (z-score)” value [20] of the same binder?
Answer: -0.093

Question: And the “glycan array binding signal (z-score)” value [21]?
Answer: -0.45

Question: What about the “glycan array binding signal (z-score)” value [22] of the same binder?
Answer: 1.2

Question: What about the “glycan array binding signal (z-score)” value [23] of the same binder?
Answer: -0.042

Question: And the “glycan array binding signal (z-score)” value [24]?
Answer: -0.35

Question: And the “glycan array binding signal (z-score)” value [25]?
Answer: 0.252

Question: What about the “glycan array binding signal (z-score)” value [26] of the same binder?
Answer: 0.016

Question: And the “glycan array binding signal (z-score)” value [27]?
Answer: 1.65

Question: And the “glycan array binding signal (z-score)” value [28]?
Answer: 0.277

Question: What about the “glycan array binding signal (z-score)” value [29] of the same binder?
Answer: -0.182

Question: And the “glycan array binding signal (z-score)” value (Fuc(a1-3)GlcNAc)?
Answer: -0.718

Question: And the “glycan array binding signal (z-score)” value [30]?
Answer: 0.382

Question: What about the “glycan array binding signal (z-score)” value [31] of the same binder?
Answer: -0.605

Question: And the “glycan array binding signal (z-score)” value [32]?
Answer: -0.043

Question: What about the “glycan array binding signal (z-score)” value [33] of the same binder?
Answer: 0.019

Question: And the “glycan array binding signal (z-score)” value [34]?
Answer: 1.46

Question: What about the “glycan array binding signal (z-score)” value [35] of the same binder?
Answer: -0.985

Question: And the “glycan array binding signal (z-score)” value [36]?
Answer: 0.997
